# The other results are listed elsewhere or left out.
# Columns and labels:
# Assay in all cases: glycan array binding signal (z-score within array); higher = stronger binding
# Conditions in all cases: glycan notation: IUPAC condensed, linker removed
# [1] = molecular target: Man(a1-2)Man(a1-3)[Man(a1-2)Man(a1-6)]Man
# Outline: (§1)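 Glycan array data came from 3228 arrays in the Consortium for Functional Glycomics database, and only arrays with an available protein sequence were kept. Glycan names were put into IUPAC-condensed notation, and columns mapping to the same glycan were averaged. The binding signal is a within-array Z-score, averaged across arrays of one protein sequence run at different concentrations or buffers and across linkers. A negative Z-score can be read as non-binding.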
# [2] = molecular target: Man(a1-2)Man(a1-3)[Man(a1-2)Man(a1-6)]Man(a1-6)[Man(a1-2)Man(a1-2)Man(a1-3)]Man
# Outline: as §1
# [3] = molecular target: Man(a1-2)Man(a1-3)[Man(a1-2)Man(a1-6)]Man(a1-6)[Man(a1-2)Man(a1-2)Man(a1-3)]Man(b1-4)GlcNAc(b1-4)GlcNAc
# Outline: as §1
# [4] = molecular target: Man(a1-2)Man(a1-3)[Man(a1-6)]Man(a1-6)[Man(a1-2)Man(a1-3)]Man(b1-4)GlcNAc(b1-4)GlcNAc
# Outline: as §1
# [5] = molecular target: Man(a1-2)Man(a1-6)[Man(a1-3)]Man(a1-6)[Man(a1-2)Man(a1-2)Man(a1-3)]Man
# Outline: as §1
# [6] = molecular target: Man(a1-2)Man(a1-6)[Man(a1-3)]Man(a1-6)[Man(a1-2)Man(a1-2)Man(a1-3)]Man(b1-4)GlcNAc(b1-4)GlcNAc
# Outline: as §1
# [7] = molecular target: Man(a1-3)[Man(a1-6)]Man
# Outline: as §1
# [8] = molecular target: Man(a1-3)[Man(a1-6)]Man(a1-6)[Man(a1-2)Man(a1-3)]Man(b1-4)GlcNAc(b1-4)GlcNAc
# Outline: as §1
# [9] = molecular target: Man(a1-3)[Man(a1-6)]Man(a1-6)[Man(a1-3)]Man
# Outline: as §1
# [10] = molecular target: Man(a1-3)[Man(a1-6)]Man(a1-6)[Man(a1-3)]Man(b1-4)GlcNAc(b1-4)GlcNAc
# Outline: as §1
# [11] = molecular target: Man(a1-3)[Man(a1-6)]Man(b1-4)GlcNAc(b1-4)GlcNAc
# Outline: as §1
# [12] = molecular target: Man(a1-3)[Man(a1-6)]Man(b1-4)GlcNAc(b1-4)[Fuc(a1-6)]GlcNAc
# Outline: as §1
# [13] = molecular target: Man(a1-6)Man
# Outline: as §1
# [14] = molecular target: Man(b1-4)GlcNAc
# Outline: as §1
# [15] = molecular target: MurNAc(b1-4)GlcNAc
# Outline: as §1
# [16] = molecular target: Neu5Ac(a2-3)Gal
# Outline: as §1
# [17] = molecular target: Neu5Ac(a2-3)Gal(b1-3)GalNAc
# Outline: as §1
# [18] = molecular target: Neu5Ac(a2-3)Gal(b1-3)GalNAc(b1-3)Gal(a1-4)Gal(b1-4)Glc
# Outline: as §1
# [19] = molecular target: Neu5Ac(a2-3)Gal(b1-3)GalNAc(b1-4)Gal(b1-4)Glc
# Outline: as §1
# [20] = molecular target: Neu5Ac(a2-3)Gal(b1-3)GalNAc(b1-4)[Neu5Ac(a2-3)]Gal(b1-4)Glc
# Outline: as §1
# [21] = molecular target: Neu5Ac(a2-3)Gal(b1-3)GalNAc(b1-4)[Neu5Ac(a2-8)Neu5Ac(a2-3)]Gal(b1-4)Glc
# Outline: as §1
# [22] = molecular target: Neu5Ac(a2-3)Gal(b1-3)GalNAc6S
# Outline: as §1
# [23] = molecular target: Neu5Ac(a2-3)Gal(b1-3)GlcNAc
# Outline: as §1
# [24] = molecular target: Neu5Ac(a2-3)Gal(b1-3)GlcNAc(b1-2)Man
# Outline: as §1
# [25] = molecular target: Neu5Ac(a2-3)Gal(b1-3)GlcNAc(b1-2)Man(a1-3)[GlcNAc(b1-4)][Neu5Ac(a2-3)Gal(b1-3)GlcNAc(b1-2)Man(a1-6)]Man(b1-4)GlcNAc(b1-4)GlcNAc
# Outline: as §1
# [26] = molecular target: Neu5Ac(a2-3)Gal(b1-3)GlcNAc(b1-2)Man(a1-3)[Neu5Ac(a2-3)Gal(b1-3)GlcNAc(b1-2)Man(a1-6)]Man(b1-4)GlcNAc(b1-4)GlcNAc
# Outline: as §1
# [27] = molecular target: Neu5Ac(a2-3)Gal(b1-3)GlcNAc(b1-2)[Neu5Ac(a2-3)Gal(b1-3)GlcNAc(b1-4)]Man(a1-6)[Neu5Ac(a2-3)Gal(b1-3)GlcNAc(b1-2)Man(a1-3)]Man(b1-4)GlcNAc(b1-4)GlcNAc
# Outline: as §1
# [28] = molecular target: Neu5Ac(a2-3)Gal(b1-3)GlcNAc(b1-3)Gal(b1-3)GlcNAc
# Outline: as §1
# [29] = molecular target: Neu5Ac(a2-3)Gal(b1-3)GlcNAc(b1-3)Gal(b1-4)GlcNAc
# Outline: as §1
# [30] = molecular target: Neu5Ac(a2-3)Gal(b1-3)GlcNAc(b1-3)GalNAc
# Outline: as §1
# [31] = molecular target: Neu5Ac(a2-3)Gal(b1-3)GlcNAc(b1-6)GalNAc
# Outline: as §1
# [32] = molecular target: Neu5Ac(a2-3)Gal(b1-3)GlcNAc6S
# Outline: as §1
# [33] = molecular target: Neu5Ac(a2-3)Gal(b1-3)[Fuc(a1-4)]GlcNAc
# Outline: as §1
# [34] = molecular target: Neu5Ac(a2-3)Gal(b1-3)[Fuc(a1-4)]GlcNAc(b1-3)Gal(b1-3)[Fuc(a1-4)]GlcNAc
# Outline: as §1
# [35] = molecular target: Neu5Ac(a2-3)Gal(b1-3)[Fuc(a1-4)]GlcNAc(b1-3)Gal(b1-4)[Fuc(a1-3)]GlcNAc
# Outline: as §1
# [36] = molecular target: Neu5Ac(a2-3)Gal(b1-3)[GlcNAc(b1-6)]GalNAc
# Outline: as §1
# [37] = molecular target: Neu5Ac(a2-3)Gal(b1-3)[Neu5Ac(a2-6)]GalNAc
# Outline: as §1
# [38] = molecular target: Neu5Ac(a2-3)Gal(b1-3)[Neu5Ac(a2-6)]GlcNAc(b1-3)[Fuc(a1-3)[Gal(b1-4)]GlcNAc(b1-6)]Gal(b1-4)Glc
# Outline: as §1
# [39] = molecular target: Neu5Ac(a2-3)Gal(b1-3)]Neu5Ac(a2-3)Gal(b1-4)]GlcNAc
# Outline: as §1
# [40] = molecular target: Neu5Ac(a2-3)Gal(b1-4)Glc
# Outline: as §1
# [41] = molecular target: Neu5Ac(a2-3)Gal(b1-4)GlcNAc
# Outline: as §1
# [42] = molecular target: Neu5Ac(a2-3)Gal(b1-4)GlcNAc(b1-2)Man
# Outline: as §1
# [43] = molecular target: Neu5Ac(a2-3)Gal(b1-4)GlcNAc(b1-2)Man(a1-3)[GlcNAc(b1-4)][Neu5Ac(a2-3)Gal(b1-4)GlcNAc(b1-2)Man(a1-6)]Man(b1-4)GlcNAc(b1-4)GlcNAc
# Outline: as §1
# [44] = molecular target: Neu5Ac(a2-3)Gal(b1-4)GlcNAc(b1-2)Man(a1-3)[Neu5Ac(a2-3)Gal(b1-4)GlcNAc(b1-2)Man(a1-6)]Man(b1-4)GlcNAc(b1-4)GlcNAc
# Outline: as §1
# [45] = molecular target: Neu5Ac(a2-3)Gal(b1-4)GlcNAc(b1-2)Man(a1-3)[Neu5Ac(a2-3)Gal(b1-4)GlcNAc(b1-2)Man(a1-6)]Man(b1-4)GlcNAc(b1-4)[Fuc(a1-6)]GlcNAc
# Outline: as §1
binder,measurement,setting,value
APVPVTKLVCDGDTYKCTAYLDFGDGRWVAQWDTNVFHTG [PhoSpL (Pholiota squarrosa)],glycan array binding signal (z-score),[1],-0.443
same,glycan array binding signal (z-score),[2],-0.503
same,glycan array binding signal (z-score),[3],-0.304
same,glycan array binding signal (z-score),[4],-0.525
same,glycan array binding signal (z-score),[5],-0.415
same,glycan array binding signal (z-score),[6],-0.211
same,glycan array binding signal (z-score),[7],-0.118
same,glycan array binding signal (z-score),[8],0.212
same,glycan array binding signal (z-score),[9],-0.462
same,glycan array binding signal (z-score),[10],-0.068
same,glycan array binding signal (z-score),[11],-0.131
same,glycan array binding signal (z-score),[12],6.32
same,glycan array binding signal (z-score),[13],-0.564
same,glycan array binding signal (z-score),[14],-0.41
same,glycan array binding signal (z-score),[15],-0.337
same,glycan array binding signal (z-score),[16],-0.325
same,glycan array binding signal (z-score),[17],-0.186
same,glycan array binding signal (z-score),[18],-0.603
same,glycan array binding signal (z-score),[19],0.013
same,glycan array binding signal (z-score),[20],0.143
same,glycan array binding signal (z-score),[21],-0.317
same,glycan array binding signal (z-score),[22],-0.165
same,glycan array binding signal (z-score),[23],0.036
same,glycan array binding signal (z-score),[24],-0.135
same,glycan array binding signal (z-score),[25],-0.151
same,glycan array binding signal (z-score),[26],0.04
same,glycan array binding signal (z-score),[27],-0.65
same,glycan array binding signal (z-score),[28],-0.282
same,glycan array binding signal (z-score),[29],0.31
same,glycan array binding signal (z-score),[30],0.15
same,glycan array binding signal (z-score),[31],0.594
same,glycan array binding signal (z-score),[32],0.282
same,glycan array binding signal (z-score),[33],-0.314
same,glycan array binding signal (z-score),[34],-0.57
same,glycan array binding signal (z-score),[35],-0.765
same,glycan array binding signal (z-score),[36],-0.29
same,glycan array binding signal (z-score),[37],-0.216
same,glycan array binding signal (z-score),[38],-0.383
same,glycan array binding signal (z-score),[39],-0.288
same,glycan array binding signal (z-score),[40],-0.236
same,glycan array binding signal (z-score),[41],-0.04
same,glycan array binding signal (z-score),[42],0.306
same,glycan array binding signal (z-score),[43],-0.113
same,glycan array binding signal (z-score),[44],-0.406
same,glycan array binding signal (z-score),[45],0.562
